Experimental data published in PubChem BioAssay AID504832 (National Center for Advancing Translational Sciences (NCATS), 2011).
Out of some 310,000 compounds screened, about 18,000 (5.8%) were called active. This list was built around the results that the source calls inconclusive (neither active nor inactive); the mix of calls is not that of the screen. Calls come from the whole dose curve; as a rule, active = well fitted inhibition curve with a large enough effect; inconclusive = small, poorly fitted or top-dose-only effect, or another doubt; inactive = no such curve, though single readings can be large or run the other way. No potency is given beside an inconclusive call; the fits are too rough.

experiment: Primary qHTS for delayed death inhibitors of the malarial parasite plastid, 48 hour incubation; conditions: P. falciparum luciferase growth in erythrocytes; series mostly up to 28.7 µM; activity change, negative = inhibition: at the top concentration
Summary of the method: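 Cell-based growth assay: transgenic P. falciparum expressing firefly luciferase, cultured in red cells within RPMI 1640 containing 0.5% w/v Albumax, 24 mM bicarbonate and gentamycin. A drop in luciferase activity indicates inhibition.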
% is set by controls: 0 for no effect and ±100 for the full control effect; potency is the fitted concentration of half-maximal effect; tags give direction and shape of the fitted curve.

| Compound | Potency | activity change, negative = inhibition |
| --- | --- | --- |
| COC(=O)C1=C(c2ccc(F)cc2F)C[C@@H]2CC[C@H]1N2C(=O)NCc1ccc(C(F)(F)F)cc1 | active: 11.7 µM |  |
| Cc1ccc(C(c2ccc(C)o2)c2cccc([N+](=O)[O-])c2O)o1 | active: 7.38 µM |  |
| COc1ccccc1N1CC(C(=O)Nc2ccc(N3CCOCC3)cc2)CC1=O (stereo unspecified) |  | inactive: -17% |
| CC(=O)N1c2ccc(S(=O)(=O)N3CCCC(C(=O)Nc4ccc(C)cc4C)C3)cc2CC1C (stereo unspecified) | inconclusive [inhibitor, partial curve, poor fit] |  |
| CN(C(=O)CSc1nnc(N)s1)C1CCCCC1 | inconclusive [inhibitor, partial curve, poor fit] |  |
| CC(=O)c1cccc(S(=O)(=O)N2CCC(C(=O)Nc3cccc(C(=O)NC4CC4)c3)CC2)c1 | inconclusive [inhibitor, single point] |  |
| Cc1ccc(CCN2C(=O)CCC2(C)C(=O)NC2CCCC2)cc1 (stereo unspecified) |  | inactive: 18.4% |
| Cc1ccc(-n2cc(CN3CCC(CO)(Cc4ccccc4)CC3)cn2)cc1 | inconclusive [inhibitor, partial curve] |  |
| Cc1ccc(C(=O)OC(C(=O)Nc2ccc(Cl)cc2C(F)(F)F)c2ccccc2)cc1 (stereo unspecified) | inconclusive [inhibitor, single point] |  |
| C=CCc1cc(Cl)ccc1OCCNCCN1CCOCC1 | inconclusive [inhibitor, partial curve] |  |
| COc1ccc(N2Cc3ccccc3C2)cc1Cl | inconclusive [inhibitor, full curve] |  |
| OC(COc1ccc(Cl)cc1)CN1CCN(c2cccc(Cl)c2)CC1 (stereo unspecified) | inconclusive [inhibitor, single point] |  |
| Cc1ccc(/C(O)=C2/C(=O)C(=O)N(CCCn3ccnc3)C2c2ccccn2)cc1 (stereo unspecified) |  | inactive: 3.8% |
| O=C(O)/C=C/C(=O)NC1CCS(=O)(=O)C1 (stereo unspecified) | inconclusive [inhibitor, full curve, poor fit] |  |
| Cc1cc(Br)ccc1NC(=O)CN(C)C(=O)c1cc(S(=O)(=O)N(C)C)ccc1N1CCCC1 |  | inactive: -11.4% |
| CCCCCc1nc2c(C#N)c(-c3ccc(Cl)cc3)ccn2n1 | inconclusive [inhibitor, partial curve, poor fit] |  |
| O=C1COc2ccc(C(=O)COC(=O)/C=C/c3ccc(Br)o3)cc2N1 |  | inactive: 6.18% |
| Cc1c(Cl)cccc1NC(=O)CNC(=O)c1cn(-c2ccccc2)nc1-c1cccnc1 | inconclusive [inhibitor, single point] |  |

| Compound | Potency | activity change, negative = inhibition |
| --- | --- | --- |
| CCCC1=Nc2cc(C(=O)N3CCN(c4ccccn4)CC3)ccc2Sc2ccc(C)cc21 | active: 9.28 µM |  |
| O=C(O)c1ccccc1Nc1cccc(OCc2ccc3ccccc3n2)c1 |  | inactive: 4.65% |
| CN(c1ccccc1)S(=O)(=O)c1ccc(Cl)c(C(=O)Nc2ccc(-c3nc4ccccc4[nH]3)cc2)c1 | inconclusive [inhibitor, single point] |  |
| COc1ccc(Cc2nnc(SC(C)C(=O)Nc3ccc(F)cc3Cl)o2)cc1 (stereo unspecified) |  | inactive: 0.768% |
| CN(Cc1ccccc1)C(=O)CCCn1c(=O)c2cccn2c2cccnc21 | inconclusive [inhibitor, single point] |  |
| Cc1cc(C)c(Cn2cnc(-c3ccc([N+](=O)[O-])cc3)c2)c(C)c1 | inconclusive [inhibitor, single point] |  |
| C=CCN1CCCC1CNC(=O)c1cc2[nH]nnc2cc1OC (stereo unspecified) | inconclusive [inhibitor, full curve] |  |
| Cc1cccc(C)c1NC(=O)CN(C)S(=O)(=O)c1ccc(-c2ccc(=O)[nH]n2)s1 | inconclusive [inhibitor, partial curve, poor fit] |  |
| CCOc1ccc(-n2c(-c3ccccc3)c[n+]3c2CCCCC3)cc1 | inconclusive [inhibitor, full curve, poor fit] |  |
| CC1C(=O)N(Cc2ccc(F)cc2)c2ccccc2N1C(=O)c1c(F)cccc1F (stereo unspecified) | inconclusive [inhibitor, single point] |  |
| Cc1cc(F)ccc1NC(=O)C1CCCO1 (stereo unspecified) |  | inactive: 0.174% |
| COc1ccc(C(=O)NNC(=O)CSc2nnc(C(C)C)n2C)cc1 |  | inactive: 1.97% |
| CCOC(=O)c1cnc(-c2ccccc2)nc1Oc1cccc(Cl)c1 | inconclusive [inhibitor, single point] |  |
| CCC1CCCCN1C(=O)c1cc2c(=O)n3cccc(C)c3nc2s1 (stereo unspecified) | inconclusive [inhibitor, single point] |  |
| COc1ccccc1C(=O)NCC(=O)OCC(=O)c1cccc2ccccc12 |  | inactive: -18% |
| O=C(Nc1nc2ccccc2[nH]1)C1CC(=O)N(c2ccc3c(c2)OCCO3)C1 (stereo unspecified) |  | inactive: 5.54% |
| O=C(C1CCC(Cn2c(=S)[nH]c3ccccc3c2=O)CC1)N1CCN(c2ccccn2)CC1 (stereo unspecified) |  | inactive: 0% |
| CCOC(=O)c1ccc(N2C(=O)c3n[nH]c(-c4ccco4)c3C2c2cccc([N+](=O)[O-])c2)cc1 (stereo unspecified) | active: 8.28 µM |  |
